To fix the notation:
T1: human IL-18RAP (full length, on transfected HEK293 cells) (human, UniProt O95256 20-599)
T1 construct: whole, on cells; also called IL-18RAP on the cell membrane surface
T1 sequence (looked up): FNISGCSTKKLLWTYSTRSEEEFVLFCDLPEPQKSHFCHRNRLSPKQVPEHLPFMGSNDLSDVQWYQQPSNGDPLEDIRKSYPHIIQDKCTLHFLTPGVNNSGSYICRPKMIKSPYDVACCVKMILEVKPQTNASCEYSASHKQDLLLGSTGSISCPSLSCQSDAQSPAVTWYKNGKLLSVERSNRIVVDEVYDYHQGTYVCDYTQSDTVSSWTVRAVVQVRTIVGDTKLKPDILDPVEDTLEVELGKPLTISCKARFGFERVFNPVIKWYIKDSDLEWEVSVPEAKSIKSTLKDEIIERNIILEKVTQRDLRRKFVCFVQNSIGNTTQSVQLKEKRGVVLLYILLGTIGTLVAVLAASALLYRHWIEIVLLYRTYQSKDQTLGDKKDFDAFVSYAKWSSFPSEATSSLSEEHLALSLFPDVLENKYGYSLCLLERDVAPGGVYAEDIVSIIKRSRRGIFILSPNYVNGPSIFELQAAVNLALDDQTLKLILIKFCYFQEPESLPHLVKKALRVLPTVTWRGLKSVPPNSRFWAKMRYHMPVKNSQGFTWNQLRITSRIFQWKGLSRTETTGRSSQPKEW

T2: human IL-18R1 and IL-18RAP on IL-18 Reporter HEK 293 Cells (human, UniProt Q13478 19-541; O95256 20-599)
T2 sequence (looked up) 1: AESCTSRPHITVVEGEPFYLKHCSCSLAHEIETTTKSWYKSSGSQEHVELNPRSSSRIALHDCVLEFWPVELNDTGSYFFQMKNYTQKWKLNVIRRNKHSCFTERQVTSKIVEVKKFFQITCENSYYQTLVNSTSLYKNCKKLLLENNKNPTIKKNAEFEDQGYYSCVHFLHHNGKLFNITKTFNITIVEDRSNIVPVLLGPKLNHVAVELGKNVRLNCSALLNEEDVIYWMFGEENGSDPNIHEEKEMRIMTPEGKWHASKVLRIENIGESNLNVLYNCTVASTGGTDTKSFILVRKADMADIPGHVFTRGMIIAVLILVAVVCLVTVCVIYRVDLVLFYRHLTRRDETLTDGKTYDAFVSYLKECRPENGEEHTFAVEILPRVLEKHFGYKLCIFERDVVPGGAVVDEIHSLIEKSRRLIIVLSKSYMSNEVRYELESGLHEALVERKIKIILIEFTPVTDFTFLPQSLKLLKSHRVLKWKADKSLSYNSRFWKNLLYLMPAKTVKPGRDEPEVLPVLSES
T2 sequence (looked up) 2: T1 sequence (looked up)

T3: human IL-18RAP ECD-His (human, UniProt O95256 20-356)
T3 sequence: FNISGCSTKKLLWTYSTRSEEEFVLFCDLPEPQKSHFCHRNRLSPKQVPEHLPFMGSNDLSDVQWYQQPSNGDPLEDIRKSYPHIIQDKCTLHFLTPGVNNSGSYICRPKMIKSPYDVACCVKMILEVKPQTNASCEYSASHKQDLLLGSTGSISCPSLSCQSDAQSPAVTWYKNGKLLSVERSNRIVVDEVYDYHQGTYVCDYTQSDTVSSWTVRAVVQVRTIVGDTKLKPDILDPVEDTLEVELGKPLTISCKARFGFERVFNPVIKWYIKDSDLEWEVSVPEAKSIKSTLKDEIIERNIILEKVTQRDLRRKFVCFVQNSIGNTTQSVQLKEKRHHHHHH

B1: hzWio-02-03-hFc (bispecific antibody)
chain: EVQLVESGGGLVQPGGSLRLSCAASGNLYRDPCMGWFRQAPGKDREGVAAMNTGADSTFYARSVKGRFTISRDNAKNTLYLQMNSLRAEDTAVYYCAASRYCTERTYTWRYDYDYWGQGTLVTVSSGGGGSEVQLVESGGGLVQPGGSLRLSCAASGFTYIPAYMGWFRQAPGKERERVASIKTDASTTYADSVEGRFTISQDNAKNTLYLQMNSLRPEDTAVYYCAAYQFGAFRVWGQGTLVTVSS[human IgG1 Fc with changes not shown]
notes: also called hzWio-02-03 (Fc form)
B2: hzWio-02-01-hFc (bispecific antibody)
chain: EVQLVESGGGLVQPGGSLRLSCAASGTAYDNACMGWFRQAPGKEREGVASIHLRDRTYYADSVKGRFTISRDNSKNTLYLQMNSLRAEDTAVYYCASSNICNALNLQGNTYWGQGTLVTVSSGGGGSEVQLLESGGGLVQPGGSLRLSCAASGYTYGPYCMGWFRQAPGKEREGVAAVGGDARTWYGNSVKGRFTISRDNSKNTLYLQMNSLRAEDTAVYYCAADFDRTVCSDDIYDYTYRGQGTLVTVSS[human IgG1 Fc with changes not shown]
notes: also called hzWio-02-01 (Fc form)
B3: hzWio-02-23-L6-hFc (bispecific antibody)
chain: EVQLVESGGGLVQPGGSLRLSCAASGFTVHDMGWYRQAPGKECELVSTISSDASTYYADSVKGRFTISRDNAKNTLYLQMNSLRAEDTAVYYCAADSFTGLQLAECKADFGYWGQGTLVTVSSGGGSGGEVQLVESGGGLVQPGGSLRLSCAASGFTYIPAYMGWFRQAPGKERERVASISSTEGSTTYADSVKGRFTISQDNSKNTLYLQMNSLRPEDTAVYYCAAYQFGAFRVWGQGTLVTVSS[human IgG1 Fc with changes not shown]
B4: hzWio-02-23-L10-hFc (bispecific antibody)
chain: EVQLVESGGGLVQPGGSLRLSCAASGFTVHDMGWYRQAPGKECELVSTISSDASTYYADSVKGRFTISRDNAKNTLYLQMNSLRAEDTAVYYCAADSFTGLQLAECKADFGYWGQGTLVTVSSGSGSGGEVQLVESGGGLVQPGGSLRLSCAASGFTYIPAYMGWFRQAPGKERERVASISSTEGSTTYADSVKGRFTISQDNSKNTLYLQMNSLRPEDTAVYYCAAYQFGAFRVWGQGTLVTVSS[human IgG1 Fc with changes not shown]
B5: hzWio-02-23-L8-hFc (bispecific antibody)
chain: EVQLVESGGGLVQPGGSLRLSCAASGFTVHDMGWYRQAPGKECELVSTISSDASTYYADSVKGRFTISRDNAKNTLYLQMNSLRAEDTAVYYCAADSFTGLQLAECKADFGYWGQGTLVTVSSGSGGGGEVQLVESGGGLVQPGGSLRLSCAASGFTYIPAYMGWFRQAPGKERERVASISSTEGSTTYADSVKGRFTISQDNSKNTLYLQMNSLRPEDTAVYYCAAYQFGAFRVWGQGTLVTVSS[human IgG1 Fc with changes not shown]
B6: hzWio-02-23-L7-hFc (bispecific antibody)
chain: EVQLVESGGGLVQPGGSLRLSCAASGFTVHDMGWYRQAPGKECELVSTISSDASTYYADSVKGRFTISRDNAKNTLYLQMNSLRAEDTAVYYCAADSFTGLQLAECKADFGYWGQGTLVTVSSGGSGGGEVQLVESGGGLVQPGGSLRLSCAASGFTYIPAYMGWFRQAPGKERERVASISSTEGSTTYADSVKGRFTISQDNSKNTLYLQMNSLRPEDTAVYYCAAYQFGAFRVWGQGTLVTVSS[human IgG1 Fc with changes not shown]
B7: hzWio-02-23-L9-hFc (bispecific antibody)
chain: EVQLVESGGGLVQPGGSLRLSCAASGFTVHDMGWYRQAPGKECELVSTISSDASTYYADSVKGRFTISRDNAKNTLYLQMNSLRAEDTAVYYCAADSFTGLQLAECKADFGYWGQGTLVTVSSGGSGSGEVQLVESGGGLVQPGGSLRLSCAASGFTYIPAYMGWFRQAPGKERERVASISSTEGSTTYADSVKGRFTISQDNSKNTLYLQMNSLRPEDTAVYYCAAYQFGAFRVWGQGTLVTVSS[human IgG1 Fc with changes not shown]
B8: hzRap-C10 single-domain antibody fused with human Fc at the C-terminus (Fc fusion)
chain: EVQLVESGGGLVQPGGSLRLSCAASGFTYIPAYMGWFRQAPGKERERVASISSTEGSTTYADSVKGRFTISQDNSKNTLYLQMNSLRPEDTAVYYCAAYQFGAFRVWGQGTLVTVSS[human IgG1 Fc with changes not shown]
B9: Rap-F11 single-domain antibody fused with human Fc at the C-terminus (Fc fusion)
chain: QVQLQESGGGSVQPGGSLRLSCAASGFTYIPAYMGWFRQAPGKERERVASIKTDGSTTYADSVNGRFTIAQDTAKNTLYLQMDSLKPEDTAMYYCAAYQFGAFRVWGQGTQVTVSS[human IgG1 Fc with changes not shown]
B10: hzRap-F11 single-domain antibody fused with human Fc at the C-terminus (Fc fusion)
chain: EVQLVESGGGLVQPGGSLRLSCAASGFTYIPAYMGWFRQAPGKERERVASIKTDASTTYADSVEGRFTISQDNAKNTLYLQMNSLRPEDTAVYYCAAYQFGAFRVWGQGTLVTVSS[human IgG1 Fc with changes not shown]

The text below walks through data of EP4711384A1 (WIO Bioscience Co., Ltd., dated 2026).

In one assay the target is T1, human IL-18RAP (full length, on …). The assay is described as follows: flow cytometry, transfected HEK293.
Take B1: the binding result is given as “binds”.

As to B2, the binding result is listed as “binds”.

The target of the next assay is T2, human IL-18R1 and IL-18RAP on IL-18 …. The assay is described as follows: cell-based or functional assay.
As for B3, it took 1.92 ng/mL to reach a half-maximal effect (EC50) and the Top630nm was found to be 1.4.

For the molecule B4, the EC50 (in general, the midpoint of the concentration-response curve) was found to be 1.82 ng/mL and the Top630nm was 1.48.

Turning to B5, the EC50 was 1.89 ng/mL and the Top630nm came out at 1.44.

As to B6, the EC50 was determined as 1.86 ng/mL and the Top630nm stood at 1.35.

Take B7: a half-maximal response (EC50) required 1.92 ng/mL and the Top630nm was found to be 1.5.

A further assay addresses T3, human IL-18RAP ECD-His. The assay is described as follows: BLI (Octet), AHC capture, antigen 100 nM. A general note: In BLI a coated tip is dipped into the sample, and binding shifts an interference pattern.
Take B8: the Kd (commonly the free concentration of one partner at which half of the binding sites on the other are occupied at equilibrium, for simple one-to-one binding) was 6.24 nM; the koff (in general, the first-order rate constant of dissociation) is 0.00116 s⁻¹; the on-rate (kon) (as a rule, the second-order rate constant of association) is 185000 M⁻¹ s⁻¹.

B9: the Kd amounted to 4.58 nM, the koff is 0.000705 s⁻¹ and the kon is 154000 M⁻¹ s⁻¹.

With B10, the Kd turned out to be 4.85 nM, the koff was 0.00116 s⁻¹ and the kon was found to be 239000 M⁻¹ s⁻¹.

In another assay the target is T2, human IL-18R1 and IL-18RAP on IL-18 …. The assay is described as follows: cell-based or functional assay. This is another data set of the same source.
As to B1, the EC50 came out at 1.14 ng/mL and the Top630nm came to 2.04.

B2 yielded an EC50 of 1.42 ng/mL and a Top630nm of 1.46.
